Among the data in a collection of fitness landscapes (doi:10.1038/s41467-024-54723-y) are TetR repression strength values, retold here.

Whole data set: some 18,000 sequences, median “TetR repression strength (sort-seq, GFP reporter)” near 0.23, cut for the highest 2% near 0.68. The list shows a part of the results.

For this test, the target named is TetR (class B, Tn10) (UniProt P04483). Nature of the test: TetR repression strength (sort-seq, GFP reporter) (relative to tetO2 = 1); higher = stronger repression. The note with it: E. coli. The method, boiled down: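 E. coli SIG10-MAX carried a low-copy plasmid library with eight randomized operator positions between a constitutive promoter and sfGFP, with TetR constitutively expressed. Cells grew 5 h at 37 °C in LB with 50 µg/mL chloramphenicol, then 10^6 cells were FACS-sorted into 13 fluorescence bins, each Illumina-sequenced. Repression strength is the top bin index plus one minus the read-weighted mean bin, divided by the wild-type operator value. Three independent transformations; variants with ≥30 reads in all replicates and CV ≤0.5 were averaged.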
UniProt P04483, sequence (P04483 whole entry): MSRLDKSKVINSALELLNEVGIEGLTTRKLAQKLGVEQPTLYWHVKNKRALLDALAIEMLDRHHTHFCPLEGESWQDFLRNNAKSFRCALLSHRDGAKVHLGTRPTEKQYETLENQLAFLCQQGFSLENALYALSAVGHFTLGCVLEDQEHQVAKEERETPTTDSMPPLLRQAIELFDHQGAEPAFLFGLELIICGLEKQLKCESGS
Turning to TCCCGTGTAGTGGCGGAGA, the TetR repression strength was determined as 0.168.

TCCCGCGAAGTGCGAGAGA came in with a TetR repression strength of 0.142.

Turning to TCCCGTACAGTATCTGAGA, the TetR repression strength turned out to be 0.222.

For the sequence TCCCTGTCAGTGTTAGAGA, the TetR repression strength stood at 0.51.

In turn, TCCCGCGGAGTGATGGAGA yielded a TetR repression strength of 0.164.

TCCCGCAAAGTAAACGAGA gave a TetR repression strength of 0.00864.

Sequence TCCCGGCGAGTGCCGGAGA returned a TetR repression strength of 0.193.

Sequence TCCCGCTCAGTGGGCGAGA registered a TetR repression strength of 0.246.

In the case of TCCCTCTTAGTCGGCGAGA, the TetR repression strength amounted to 0.197.

As for TCCCAGGGAGTTTTGGAGA, the TetR repression strength came to 0.197.

For TCCCTGCCAGTTTACGAGA, the TetR repression strength amounted to 0.197.

Regarding TCCCTGTAAGTAGAAGAGA, the TetR repression strength is 0.214.

Turning to TCCCGTCTAGTTTCGGAGA, the TetR repression strength was found to be 0.153.

TCCCATAAAGTAGCGGAGA yielded a TetR repression strength of 0.154.

In the case of TCCCCTTTAGTGTGTGAGA, the TetR repression strength stood at 0.238.

As to TCCCCATCAGTGTTGGAGA, the TetR repression strength was 0.0933.

In the case of TCCCAGCAAGTGGGAGAGA, the TetR repression strength turned out to be 0.221.

The sequence TCCCGTCAAGTAATAGAGA registered a TetR repression strength of 0.331.

TCCCTATCAGTCAAAGAGA yielded a TetR repression strength of 0.636.

With TCCCGAGTAGTCTCTGAGA, the TetR repression strength came out at 0.246.

With TCCCGTCTAGTGTGCGAGA, the TetR repression strength amounted to 0.259.

Take TCCCATGTAGTGAAGGAGA: the TetR repression strength stood at 0.

Take TCCCCAAAAGTGGGGGAGA: the TetR repression strength was 0.196.

TCCCAGACAGTGCTCGAGA displayed a TetR repression strength of 0.855.

TCCCCTTGAGTAAGGGAGA came in with a TetR repression strength of 0.263.

The sequence TCCCGTTTAGTATAAGAGA displayed a TetR repression strength of 0.104.

As to TCCCGTTCAGTCCGGGAGA, the TetR repression strength amounted to 0.184.

For TCCCATCCAGTCCCGGAGA, the TetR repression strength came out at 0.027.

The sequence TCCCAATTAGTGGCTGAGA gave a TetR repression strength of 0.152.

As to TCCCGTGTAGTTTACGAGA, the TetR repression strength came to 0.0829.

Regarding TCCCAGGAAGTGCGGGAGA, the TetR repression strength stood at 0.309.

TCCCGTACAGTGTGTGAGA yielded a TetR repression strength of 0.286.

In the case of TCCCTATAAGTGTCTGAGA, the TetR repression strength was found to be 0.575.

On to TCCCGAAAAGTTGTAGAGA, for which the TetR repression strength is 0.261.

TCCCTGCGAGTTTTGGAGA: the TetR repression strength worked out at 0.457.

As to TCCCGGTTAGTAACTGAGA, the TetR repression strength stood at 0.207.

As to TCCCAATAAGTGATTGAGA, the TetR repression strength was 0.408.

As to TCCCTTCGAGTCTGGGAGA, the TetR repression strength worked out at 0.384.

TCCCTGCAAGTCCCGGAGA showed a TetR repression strength of 0.356.

With TCCCCCATAGTCGGCGAGA, the TetR repression strength amounted to 0.134.

In turn, TCCCGGGAAGTCGGTGAGA came in with a TetR repression strength of 0.114.

For TCCCATTCAGTTCTTGAGA, the TetR repression strength worked out at 0.231.

The sequence TCCCCAACAGTCGCTGAGA registered a TetR repression strength of 0.499.

Sequence TCCCCACCAGTTGTGGAGA gave a TetR repression strength of 0.196.

Sequence TCCCACATAGTGGTGGAGA came in with a TetR repression strength of 0.381.

As for TCCCGCATAGTGGCGGAGA, the TetR repression strength was 0.19.

For the sequence TCCCAACGAGTGGGAGAGA, the TetR repression strength is 0.217.

Turning to TCCCATGCAGTAGACGAGA, the TetR repression strength was 0.205.

TCCCGGGAAGTGCATGAGA gave a TetR repression strength of 0.167.

On to TCCCTGCCAGTTGTAGAGA, for which the TetR repression strength stood at 0.319.

Turning to TCCCACGCAGTGGCTGAGA, the TetR repression strength was determined as 0.106.

Take TCCCCTCGAGTGGTAGAGA: the TetR repression strength turned out to be 0.191.

In turn, TCCCACCTAGTGATAGAGA showed a TetR repression strength of 0.487.

Sequence TCCCGGGGAGTCATTGAGA yielded a TetR repression strength of 0.395.

As for TCCCAGCGAGTGCAAGAGA, the TetR repression strength came to 0.364.

In the case of TCCCTCCCAGTGGAAGAGA, the TetR repression strength worked out at 0.491.

In turn, TCCCCACGAGTATAGGAGA showed a TetR repression strength of 0.0143.

TCCCGAAGAGTTCACGAGA gave a TetR repression strength of 0.33.

TCCCTCCCAGTTCTTGAGA returned a TetR repression strength of 0.466.

Regarding TCCCCAAGAGTTGGGGAGA, the TetR repression strength worked out at 0.0324.

TCCCGATCAGTGCAGGAGA yielded a TetR repression strength of 0.299.

In turn, TCCCGGACAGTTAATGAGA displayed a TetR repression strength of 0.158.

As to TCCCACGAAGTGCCAGAGA, the TetR repression strength amounted to 0.186.

TCCCACTAAGTGCGCGAGA: the TetR repression strength was 0.204.

TCCCACAGAGTCGGTGAGA displayed a TetR repression strength of 0.165.

Turning to TCCCTTAGAGTCCAGGAGA, the TetR repression strength stood at 0.215.

TCCCGGCTAGTAGTAGAGA: the TetR repression strength worked out at 0.293.

Consider TCCCGGGAAGTATGAGAGA, for which the TetR repression strength worked out at 0.278.

The sequence TCCCACGCAGTGCTGGAGA had a TetR repression strength of 0.175.

The sequence TCCCAATTAGTGGTCGAGA registered a TetR repression strength of 0.32.

The sequence TCCCGGGTAGTCGTAGAGA displayed a TetR repression strength of 0.501.

In turn, TCCCGCACAGTGGCCGAGA returned a TetR repression strength of 0.526.

Regarding TCCCAAAGAGTCAGTGAGA, the TetR repression strength was 0.261.

For the sequence TCCCAATTAGTATGTGAGA, the TetR repression strength is 0.0876.

For TCCCACCCAGTCAGGGAGA, the TetR repression strength was found to be 0.302.

With TCCCGGTGAGTGAGCGAGA, the TetR repression strength was determined as 0.346.

With TCCCAAAAAGTGTACGAGA, the TetR repression strength came to 0.248.

For TCCCAATTAGTGACAGAGA, the TetR repression strength was 0.512.

TCCCGTTAAGTCGCCGAGA registered a TetR repression strength of 0.0862.

Regarding TCCCGAGTAGTCACCGAGA, the TetR repression strength was 0.195.

TCCCGGGTAGTCTGTGAGA: the TetR repression strength came to 0.26.

Regarding TCCCCAAGAGTAGGGGAGA, the TetR repression strength stood at 0.144.

TCCCGAGAAGTAGGCGAGA had a TetR repression strength of 0.101.

In turn, TCCCCAGAAGTGGTTGAGA registered a TetR repression strength of 0.399.

Sequence TCCCGGTTAGTATTTGAGA came in with a TetR repression strength of 0.184.

On to TCCCATAGAGTCTGGGAGA, for which the TetR repression strength was determined as 0.199.

For the sequence TCCCGGGAAGTACAGGAGA, the TetR repression strength amounted to 0.286.

Regarding TCCCCCTGAGTATTCGAGA, the TetR repression strength was determined as 0.332.

For TCCCGGCGAGTGGCGGAGA, the TetR repression strength turned out to be 0.322.

Sequence TCCCTGTGAGTGCGTGAGA registered a TetR repression strength of 0.35.

For TCCCGCCTAGTCGTGGAGA, the TetR repression strength is 0.466.

In turn, TCCCGGGCAGTTGTTGAGA showed a TetR repression strength of 0.115.

TCCCGTGCAGTGGGAGAGA showed a TetR repression strength of 0.177.

Sequence TCCCGCACAGTAGAGGAGA yielded a TetR repression strength of 0.232.

Turning to TCCCCAACAGTTGGCGAGA, the TetR repression strength turned out to be 0.343.

As to TCCCTTCGAGTGCATGAGA, the TetR repression strength came out at 0.26.

Turning to TCCCAATGAGTGATTGAGA, the TetR repression strength amounted to 0.662.

On to TCCCAAGAAGTAGGTGAGA, for which the TetR repression strength stood at 0.23.

In the case of TCCCGGGTAGTCATGGAGA, the TetR repression strength turned out to be 0.275.

TCCCTGGCAGTAAGTGAGA showed a TetR repression strength of 0.339.

TCCCCGGCAGTCTTTGAGA displayed a TetR repression strength of 0.297.

On to TCCCTTGAAGTCATCGAGA, for which the TetR repression strength was found to be 0.131.
